These are yes or no findings as the source states them, for the method shown. Some entries that bind do so weakly or less than the wild type.
Target: HEI10 (A. thaliana) (UniProt F4HRI2)
Test: two-hybrid; Clontech Matchmaker Gold; pGADT7 (AD) and pGBKT7 (BD) fusions co-transformed into Y2H Gold yeast; serial dilutions on DDO, TDO (−His/−Leu/−Trp, screens for weak interactions) and QDO (−His/−Ade/−Leu/−Trp, screens for strong interactions); 3–5 days at 30 °C

binding: binds
B1: HEI10 (protein, UniProt F4HRI2 1-304)
chain: MRCNACWRDLEGRAISTTCGHLLCTEDASKILSNDGACPICDQVLSKSLMKPVDINPNEEWINMAMAGISPQILMKSAYRSVMFYIAQRDLEMQYKMNRVVAQCRQKCEGMQAKFSEKMEQVHTAYQKMGKRCQMMEQEVENLTKDKQELQEKFSEKSRQKRKLDEMYDQLRSEYESVKRTAIQPANNFYPRHQEPDFFSNPAVNMMENRETIRKDRSFFSPATPGPKDEIWPARQNSSNSGPFDISTDSPAIPSDLGNRRAGRGHPVYGGGGTANPQSTLRNLILSPIKRSQLSRSRPQLFTL
